Data from PubChem BioAssay AID1240 (Sanford-Burnham Center for Chemical Genomics, 2008).
Values joined by “and” are separate entries in the source; they are usually repeats but may differ in a detail not shown here. Equal entries are not always repeated. Out of some 50,000 compounds screened, about 800 (1.6%) showed an effect of 50% or more. This is one part of the list.

Biological target: Bcl-2-like protein 10 (Homo sapiens) (UniProt Q9HD36)
Experiment: TR3 peptide-Bcl-B binding displacers, biochemical primary FP assay, phenotype converters (AID 1240);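 further: 0% = Bcl-B with tracer peptide and DMSO and 100% = tracer peptide lacking Bcl-B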
Details: GST-Bcl-B / FITC-TR3 peptide fluorescence polarization; stronger effect = higher value; compound at 3.75 mg/L

Chain of UniProt Q9HD36 (Q9HD36 whole entry, looked up): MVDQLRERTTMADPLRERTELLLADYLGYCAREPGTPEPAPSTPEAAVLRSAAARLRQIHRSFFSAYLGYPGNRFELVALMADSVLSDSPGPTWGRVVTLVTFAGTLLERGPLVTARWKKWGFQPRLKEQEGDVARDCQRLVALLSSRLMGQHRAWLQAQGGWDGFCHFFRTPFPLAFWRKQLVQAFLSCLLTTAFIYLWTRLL

SMILES | displacement
Cc1ccc(C(=O)/C=C/c2ccc([N+](=O)[O-])cc2)s1 | -2.1%
COc1cc2c(cc1NCc1ccncc1)oc1ccccc12 | -12.3%
COC(=O)C1=C(O)/C(=C/c2cccc(OC)c2O)N=C1C | 13.6%
C/C(=N/NC(=O)c1cccc(O)c1)C1CC1 | 7.9%
C(=N\N=C1c2ccccc2-c2ccccc21)/c1ccc2c(c1)OCO2 | -18.2%
O=C(O)c1ccccc1Sc1ccccc1C(=O)O | -5.4%
S=C(SC1OCCOC1SC(=S)N1CCOCC1)N1CCOCC1 (stereo not given) | 6.3%
COc1ccc(/C=N/NC(=O)CCc2c(C)n[nH]c2C)cc1O | -9.5%
O=C1NC(=O)N(c2ccccc2)C(=O)/C1=C\c1ccc(-c2ccccc2Cl)o1 | 42.6%
O=C(NCc1ccncc1)C(O)(c1ccccc1)c1ccccc1 | -4.7%
Cc1c(-c2cccs2)nc2ccccc2c1C(=O)O | 6.1%
COc1ccccc1C(O)(C(=O)Nc1ccccn1)c1ccccc1OC | -26.2%
CCOc1ccc(/C=C/C(=O)c2ccc(C)cc2)cc1 | 0.3%
O=C1CC(c2ccccc2)CC(O)=C1C=NC1CCCCC1 (stereo not given) | -10.4%
O=C(NCc1ccccc1)c1ccc(Cl)c(S(=O)(=O)N2CCCCC2)c1 | -9.3%
O=C(NCC1(c2ccccc2)CCOCC1)c1ccc(Br)o1 | -0.9%
CCOc1cc(C=O)ccc1OCc1ccc(Cl)cc1 | -2.9%
O=C(CCc1ccccc1)Nc1sc2c(c1C(=O)O)CCCC2 | -1.2%
O=C(Nc1ccc(Cl)cc1)OCCOc1ccc(Br)cc1Br | 6.9%
O=c1oc(-c2cccc(F)c2)nc2ccc(Cc3ccc4nc(-c5cccc(F)c5)oc(=O)c4c3)cc12 | 13.2%
COc1ccc(NC2(c3ccc(Cl)cc3)C(=O)c3ccccc3C2=O)cc1 | -8.7%
CN(Cn1nc(-c2ccccc2)oc1=S)c1ccccc1 | -0.9%

SMILES | displacement
Oc1ccc(C=Nc2ccc(O)cc2)cc1 | -14.8%
CN(C(=O)NS(=O)(=O)c1ccccc1Cl)c1nc(OCC(F)(F)F)nc(OCC(F)(F)F)n1 | -0.6%
CCOC(=O)c1c(NC(=O)CN2C(=O)S/C(=C\c3ccccc3)C2=O)sc2c1CCCC2 | -3.3%
CCCCOC(=O)c1ccc(NC(=O)c2cccc(OC)c2)cc1 | 12.6%
O=C(CC1(O)C(=O)N(Cc2ccccc2)c2ccccc21)c1cccs1 (stereo not given) | -6.1%
Cc1ccc(-c2nc3s/c(=C\c4cn(-c5ccccc5)nc4-c4ccccc4)c(=O)n3n2)cc1 | 8.5%
COCCOC(=O)C1=C(C)NC(=S)NC1c1ccc(OC)c(OC)c1 (stereo not given) | -14.3%
COc1cc(NC(=O)C2CCCCC2)c2ncccc2c1 | 7.1%
CCSc1nnc(NC(=O)C2CC3CCC2C3)s1 (stereo not given) | 2.7%
CCOc1cc(C(=S)N2CCOCC2)cc(Br)c1OC(=O)c1ccc(Cl)cc1Cl | 14.1%
COC(=O)c1ccc(C(=O)OC)c(NC(=O)COc2ccc(C)cc2C)c1 | -1.3%
O=C(O)c1ccc(NC(=O)c2ccccc2NC(=O)c2cccs2)cc1 | 9.6%
Cn1c(=O)c2c(nc(C(N)=O)n2C)n(C)c1=O | 10.5%
COc1ccc(C2CC(=O)C3=C(C2)Nc2ccccc2NC3c2ccccc2[N+](=O)[O-])cc1OC (stereo not given) | -1.6%
O=C(Nc1ccc(Cl)cn1)c1ccc2c(c1)OCCO2 | 8.3%
Cn1c(=O)n(C)c2cc(/C=C(\C#N)c3nn(-c4ccccc4)c(N)c3C#N)ccc21 | 92.9%
O=C(/C=C/c1ccco1)Nc1nc2ccc(Br)cc2s1 | 59.2%
O=C(COc1ccc(Cl)cc1)Nc1ccc(OC(F)(F)F)cc1 | 9.1%
COC(=O)c1cc(C(=O)N2CCN(C)CC2)cc([N+](=O)[O-])c1 | 12.3%
COc1cc(/C(C)=N/N2CCN(Cc3ccc(C)cc3)CC2)ccc1O | 13.1%
COc1ccc(N(CC(=O)Nc2ccc(Cl)cc2)S(C)(=O)=O)cc1 | 11.3%
CCOc1cc(/C=N/n2cnnc2)cc(I)c1O | 3.8%

SMILES | displacement
Cc1ccccc1OCC(=O)Nc1ccc(OC(F)(F)F)cc1 | 10.7%
CC(C)(C)c1ccc(OCC(=O)Nc2sc3c(c2C(N)=O)CCCC3)cc1 | 4%
Cc1ccc2nc(Nc3nc(O)c(Cc4ccccc4)c(=O)[nH]3)nc(C)c2c1 | -4.2%
Cc1ccc(/C=C2\SC(=S)N(c3c(C)n(C)n(-c4ccccc4)c3=O)C2=O)cc1 | 10.9%
CCOC(=O)c1c(NC(=O)c2ccccc2OC)sc(C(=O)Nc2ccc(C)cc2C)c1C | 2.6%
N#C/C(=C\c1ccccc1[N+](=O)[O-])C(N)=O | -2.8%
Cc1cccc(NCc2ccc3c(c2)OCO3)c1 | 3.2%
CCOC(=O)c1oc2cccc(O)c2c1CNCc1ccccc1 | 14.1%
O=C(/C=C/c1cccc([N+](=O)[O-])c1)Nc1cccnc1 | 4.2%
Cc1ccc(OCC(=O)Nc2nc(-c3ccccc3)cs2)c(C)c1 | 7.1%
O=C(NC(=S)Nc1ccc2oc3ccccc3c2c1)c1ccccc1 | 91.8%
O=C(Nc1ccccc1Cl)N1CCN(Cc2ccc3c(c2)OCO3)CC1 | -3%
CCOC(=O)C1=C(O)/C(=C/c2ccc(O)cc2)SC1=Nc1ccc(Cl)cc1 | 104%
COc1ccc(-c2cc(-c3ccccc3)nc(N/N=C/c3ccc(O)c(C)c3O)n2)cc1 | 5%
COc1ccc(-c2nnc(SCC(=O)NC3CCCC3)n2-c2ccccc2)cc1 | -15.1%
Cc1ncc(C[n+]2csc(CCOC(=O)C3C4CC5CC(C4)CC3C5)c2C)c(N)n1 (stereo not given) | 8%
CCC1=NN2C(=N)/C(=C/c3ccc(OCc4ccccc4F)c(OC)c3)C(=O)N=C2S1 | 16.2%
CCOC(=O)c1ccc(-c2ccc(C(=O)Nc3ccc(-c4nc5ccccc5o4)c(O)c3)o2)cc1 | 8.7%
O=C1/C(=C\c2cc([N+](=O)[O-])ccc2Cl)SC(=S)N1Cc1ccccc1 | -6.3%
O=C(CSc1nc2ccc(NC(=O)c3ccc(Cl)cc3Cl)cc2s1)NC1CCCCC1 | 15.4%
C=CCN(CC=C)C(=O)c1ccccc1 | 6.2%
Cc1ccnc(NC(=S)NC(=O)/C=C/c2ccccc2)c1 | -1.3%

SMILES | displacement
COc1cc(/C=C2/SC(N)=NC2=O)ccc1OCc1ccccc1[N+](=O)[O-] | 3.9%
CN1CCN(Cc2c(O)ccc3c4c(c(=O)oc23)CCC4)CC1 | -0.5%
O=[N+]([O-])c1ccccc1CSc1nnnn1-c1ccccc1 | 9.6%
O=C1C(Nc2cccc(C(F)(F)F)c2)=C(N2CCCCC2)C(=O)c2ccccc21 | 11.8%
Cc1cccc(C)c1OCC(=O)Nc1ccc([N+](=O)[O-])cc1 | 14%
COc1ccc(C(O)c2cnc(C(C)C)n2C)cc1OC (stereo not given) | -8.4%
C=CCc1cccc(/C=N\N2CCN(c3ccccc3)CC2)c1O | 7.6%
O=C(Nc1ccccc1)Nc1nnc(COc2ccc(F)cc2)s1 | 14.6%
CCOc1cc(C2CC(=O)Nc3c2ccc2ccccc32)cc(Br)c1OC (stereo not given) | -0.9%
Cc1csc(NC(=O)c2ccc([N+](=O)[O-])cc2Cl)n1 | 7.8%
CC1=C(C(=O)Nc2ccccc2)C(c2ccc(N(C)C)cc2)NC(=S)N1 (stereo not given) | -2.1%
CN1CCN(NC(=O)CN2C(=O)S/C(=C/c3ccccc3)C2=O)CC1 | -4.3%
CCOc1ccc(CN2CCN(C(=O)c3ccc([N+](=O)[O-])cc3)CC2)cc1 | -2.3%
COC(=O)c1ccccc1NC(=O)COc1cc(C)cc(C)c1 | 1.7%
CCSCCOC(=O)C1=C(C)N(C)C(=O)NC1c1ccccc1[N+](=O)[O-] (stereo not given) | 7.3%
COC(=O)C1=C(C)N(c2ccc(Cl)cc2)C(=O)/C1=C\c1ccc(O)c(OC)c1 | 21.7%
Cc1ccc(S(=O)(=O)N2CCN(C3CCCCC3)CC2)cc1 | -8.7%
COc1ccc2c(c1)CC/C(=C\c1ccc(Br)cc1)C2=O | 9.8%
O=C(c1ccc(Cl)cc1)N1CCN(c2ccccn2)CC1 | -4.5%
O=S1(=O)c2ccccc2-c2cc(-c3nc(C4=CNC5C=CC=CC45)[nH]c3-c3ccccc3)ccc21 (stereo not given) | -37.2%
COc1ccc(C(=O)Nc2ccccc2)cc1S(=O)(=O)NCc1ccccc1 | -14.9%
COc1cc(NC(=O)c2nn3c(c2Cl)NC(c2cccs2)CC3C(F)(F)F)cc([N+](=O)[O-])c1 (stereo not given) | 2.7%

SMILES | displacement
CCC(Nc1ccccc1)C(=O)N/N=C/c1cc([N+](=O)[O-])ccc1O (stereo not given) | -13.2%
COCCN1C(=O)c2cccc3cccc(c23)C1=O | 11.4%
COc1ccc(OC)c(NC(=O)CC(c2ccccc2)c2ccccc2)c1 | -7.9%
CCc1ccccc1N1C(=O)/C(=C/c2cc(C)n(C)c2C)C(=O)NC1=S | 8.1%
O=C1C=C/C(=N\S(=O)(=O)c2ccc3ccccc3c2)C=C1Br | 0.7%
CCCNC1=C(Cl)C(=O)c2ccccc2C1=O | 10%
O=c1cc(-c2ccccc2)c2cc(Cl)ccc2[nH]1 | 7.9% and 7.4%
CC(=O)NC1C(O)CC2C3CC=C4CC(O)CCC4(C)C3CCC21C (stereo not given) | -14.1%
CCCOC(=O)c1cccc(NC(=O)/C=C/c2ccc(OC)c(Br)c2)c1 | 10.9%
CCOC(=O)C(CCCCCOc1c(C)cccc1C)C(=O)OCC | 16.9%
CCCCCC(=O)Nc1ccc(S(=O)(=O)Nc2cc(OC)nc(OC)n2)cc1 | 9.8%
CC(C)(C)c1nnc(NC(=O)c2cccs2)s1 | 8.7%
O=C(CSc1nc2ccc([N+](=O)[O-])cc2[nH]1)c1ccc(F)cc1 | 1.4%
COc1cc(C(=O)Nc2ccc(S(=O)(=O)NC(C)=O)cc2)cc(OC)c1OC | -4.9%
O=C(COc1cccc2ccccc12)NNC(=O)C1CCCO1 (stereo not given) | -0.3%
COc1ccc(C(=O)Nc2c(C)ccc3nsnc23)cc1Br | 0.3%
Cc1c(C#N)c(=O)ncn1-c1ccc(Br)cc1 | -7.9%
CN(C)c1ccc(C(C2=C(O)CC(C)(C)CC2=O)C2=C(O)CC(C)(C)CC2=O)cc1 | 2.2%
O=C(CSc1nc2ccccc2[nH]1)OCc1ccccc1 | 9.5%
Cc1ccc(O)c(C=Nc2c(C)nn(C)c2C)c1 | 10.6%
CCOC(=O)Nc1sc(C)c(CC)c1C(=O)OC | 3.7%
O=[N+]([O-])c1c(N2CCCC2)ncnc1N1CCCC1 | -5.5%
